Laboratory results published in PubChem BioAssay AID504332 (National Center for Advancing Translational Sciences (NCATS), 2011).
Out of some 350,000 compounds screened, about 31,000 (8.9%) were called active. This list was built around the results that the source calls inconclusive (neither active nor inactive); the mix of calls is not that of the screen. Calls come from the whole dose curve; as a rule, active = well fitted inhibition curve with a large enough effect; inconclusive = small, poorly fitted or top-dose-only effect; inactive = no such curve, though single readings can be large or run the other way. A potency beside an inconclusive call is a rough fit, not a confirmed value.

Each compound was assayed against Histone-lysine N-methyltransferase EHMT2 (Homo sapiens) (UniProt Q96KQ7) (assay: qHTS Assay for Inhibitors of Histone Lysine Methyltransferase G9a). Conditions: G9a H3K9 monomethylation, AlphaScreen, 2 h; activity, negative = inhibition: at 59 µM (top of the series) unless noted.
Outline: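 Methyltransferase reactions run at room temperature for 2 h (20 nM enzyme, 500 nM biotin-H3K9 peptide, 20 uM SAM) after a 15 min compound preincubation; product detected by AlphaScreen beads and anti-H3K9me1 antibody.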
% is set by controls: 0 for no effect and ±100 for the full control effect; potency is the fitted concentration of half-maximal effect; tags give direction and shape of the fitted curve.
Note: nearly all actives have a fitted effect of over 75% in size.

Chain of UniProt Q96KQ7 (Q96KQ7 whole entry, looked up): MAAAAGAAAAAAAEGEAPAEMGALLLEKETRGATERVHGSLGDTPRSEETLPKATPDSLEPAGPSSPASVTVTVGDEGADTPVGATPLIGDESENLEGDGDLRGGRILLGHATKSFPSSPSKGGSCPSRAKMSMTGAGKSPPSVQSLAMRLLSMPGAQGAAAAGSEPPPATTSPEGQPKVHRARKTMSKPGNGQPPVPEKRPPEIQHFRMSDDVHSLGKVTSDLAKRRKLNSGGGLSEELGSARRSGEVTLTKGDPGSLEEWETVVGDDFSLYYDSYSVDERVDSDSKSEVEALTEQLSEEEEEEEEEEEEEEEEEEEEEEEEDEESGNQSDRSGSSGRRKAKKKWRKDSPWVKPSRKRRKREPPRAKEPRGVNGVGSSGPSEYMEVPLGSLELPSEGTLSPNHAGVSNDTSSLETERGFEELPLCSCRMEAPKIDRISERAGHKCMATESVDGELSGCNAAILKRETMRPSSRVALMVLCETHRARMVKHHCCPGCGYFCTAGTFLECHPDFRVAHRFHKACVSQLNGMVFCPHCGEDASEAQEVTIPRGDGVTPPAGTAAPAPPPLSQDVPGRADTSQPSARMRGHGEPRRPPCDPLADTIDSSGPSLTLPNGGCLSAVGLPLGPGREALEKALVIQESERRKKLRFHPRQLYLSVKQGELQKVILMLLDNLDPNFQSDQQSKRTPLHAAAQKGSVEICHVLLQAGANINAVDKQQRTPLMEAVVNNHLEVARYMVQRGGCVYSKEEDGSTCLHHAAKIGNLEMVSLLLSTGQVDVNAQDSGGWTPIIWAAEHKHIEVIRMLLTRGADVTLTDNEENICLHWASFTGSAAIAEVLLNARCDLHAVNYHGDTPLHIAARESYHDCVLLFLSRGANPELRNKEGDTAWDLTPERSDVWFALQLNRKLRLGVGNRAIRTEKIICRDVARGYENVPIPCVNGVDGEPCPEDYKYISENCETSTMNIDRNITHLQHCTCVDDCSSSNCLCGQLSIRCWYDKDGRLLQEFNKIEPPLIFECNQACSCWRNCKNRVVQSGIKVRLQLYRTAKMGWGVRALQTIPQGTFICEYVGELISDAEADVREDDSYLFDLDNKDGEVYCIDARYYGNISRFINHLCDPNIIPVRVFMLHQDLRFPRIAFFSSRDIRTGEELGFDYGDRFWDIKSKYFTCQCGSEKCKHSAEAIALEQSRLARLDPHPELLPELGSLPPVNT

Compound | Potency | activity, negative = inhibition
COC(=O)CNc1n[nH]c(=S)[nH]c1=O | inconclusive: 79.4 µM [inhibitor, single point] | 
NC(=S)Nc1ccc(F)c(F)c1F |  | inactive: -5.03% [at 102 µM]
CC1=C(C(=O)OCc2ccc(C)cc2)C(c2ccccc2F)CC(=O)N1 (stereo not drawn) |  | inactive: -31.5%
CC(NC(=S)Nc1ccc(S(=O)(=O)N2CCOCC2)cc1)C1CC2CCC1C2 (stereo not drawn) |  | inactive: -6.31%
O=C1/C(=C/c2cccc([N+](=O)[O-])c2)CCc2ccccc21 | inconclusive: 20 µM [inhibitor, single point] | 
Cc1ccc2c(=O)cc(C(=O)Nc3sc4c(c3C(=O)NCc3ccco3)CCC4)oc2c1 |  | inactive: -27.4%
O=C(NCCOC(=O)C1COc2ccccc2O1)C1COc2ccccc2O1 (stereo not drawn) | inconclusive: 0.158 µM [inhibitor, full curve, poor fit] | 
O=C(Cc1ccc(F)cc1)Nc1c(C(=O)N2CCN(c3ncccn3)CC2)oc2ccccc12 | inconclusive: 89.1 µM [inhibitor, single point] | 
O=S(=O)(N/N=C\c1ccc2c(c1)OCO2)c1ccc(F)cc1 | inconclusive: 89.1 µM [inhibitor, single point] | 
COCc1cc(=O)n2[nH]c(SCc3ccccc3)nc2n1 | inconclusive: 4.47 µM [inhibitor, partial curve, poor fit] | 
Cc1ccc(/C=C2\SC(=S)N(CCC(=O)NNC(=O)c3ccc(O)cc3)C2=O)cc1 |  | inactive: 9.25% [at 102 µM]
O=C1CC(Cc2ccccc2)C(=O)N1Cc1ccco1 (stereo not drawn) | active: 44.7 µM | 
COc1ccccc1NC(=O)CSc1nccc(-c2ccco2)n1 |  | inactive: -6.81% [at 2.33 µM]
C1CCC(n2nnnc2CN2CCN(C3CCCC3)CC2)CC1 | inconclusive: 2.82 µM [inhibitor, full curve, poor fit] | 
COc1ccc(NC(=O)C2CCN(C(=O)[C@@H]3Cc4ccccc4CN3C(=O)OC(C)(C)C)CC2)cc1 |  | inactive: 6.07% [at 102 µM]
O=C(NCc1ccccn1)c1c(O)c2c([nH]c1=O)CCCC2 |  | inactive: 13.7%
O=C(NCc1ccccc1F)C1CCN(c2nnc(-n3cccc3)s2)CC1 |  | inactive: -1.75%
COCCNc1c(-c2ccc(OC)cc2)nc2ccc(Cl)cn12 | inconclusive: 2 µM [inhibitor, full curve, poor fit] | 
O=C(O)c1ccc2c(c1Nc1ccccc1)C(=O)c1ccccc1C2=O | active: 39.8 µM | 
CC(C)CCN(C)c1ccc(/C=N/n2cnnc2)cc1 | inconclusive: 2 µM [inhibitor, partial curve, poor fit] | 
Cc1ccc(NC(=O)CN(C)CC(=O)Nc2ccccc2Oc2ccccc2)cc1 | active: 35.5 µM | 
Cc1ccc(-c2nc(CS(=O)CC(=O)NCCc3ccc(Cl)cc3)c(C)o2)cc1 (stereo not drawn) |  | inactive: -35.8%
Cc1cccc(C(=O)NNc2ncnc3c2cnn3-c2ccc(C)c(Cl)c2)c1 |  | inactive: 5.34%
COc1ccc2nc(/C=N/NC(=O)[C@H](C)NC(=O)OC(C)(C)C)ccc2c1 | inconclusive: 25.1 µM [inhibitor, single point] | 

Compound | Potency | activity, negative = inhibition
Oc1oc(-c2ccccc2Br)nc1/C=N/c1ccccn1 | inconclusive: 50.1 µM [inhibitor, partial curve, poor fit] | 
COc1ccc(N2CCN(c3ncnc4c3nnn4C)CC2)cc1 | inconclusive: 11.2 µM [inhibitor, partial curve] | 
CC(=O)c1cccc(OCc2cc(C(=O)N(C)CCc3ccccn3)no2)c1 |  | inactive: 79.5% [at 102 µM]
O=C(CCSc1nc(-c2ccc3c(c2)OCO3)cc(C(F)(F)F)n1)NCc1ccco1 |  | inactive: 4.85% [at 102 µM]
O=C(CN1CCC(NC(=O)c2ccc(Br)cc2)CC1)NCc1cccs1 | inconclusive: 89.1 µM [inhibitor, single point] | 
COc1ccccc1NS(=O)(=O)c1cc(NC(=O)c2[nH]c(C)c(C(C)=O)c2C)ccc1N1CCOCC1 |  | inconclusive: -64.9% [inhibitor]
COC1CCCCC1Nc1ccc(C)c(C)c1 (stereo not drawn) | active: 2 µM | 
Cc1ccc2nc3c(c(Nc4cccc(O)c4)c2c1)CCC3 | inconclusive: 89.1 µM [inhibitor, single point] | 
O=C1C2C=CC=CC2=NC(=S)N1CCN1CCC(=C(c2ccc(F)cc2)c2ccc(F)cc2)CC1 (stereo not drawn) | inactive | 
COc1ccc(C(=O)C[n+]2cccc(C(N)=O)c2)cc1 | inconclusive: 39.8 µM [inhibitor, single point] | 
COc1ccc(OCCn2nnc3sc4c(c3c2=O)CCCC4)cc1 |  | inactive: -2.65%
Cc1nn(Cc2ccccc2)c(C)c1CCC(=O)O | inconclusive: 3.55 µM [inhibitor, single point] | 
Clc1ccccc1CSc1nc(NCCc2ccccc2)c2ccccc2n1 |  | inactive: 2.65%
N#Cc1c(C(F)(F)F)cc(-c2cccs2)nc1SCc1ccccc1F |  | inactive: 14.9%
COc1ccc(N2CCN(C(CNC(=O)C(=O)NCc3ccncc3)c3ccco3)CC2)cc1 (stereo not drawn) | inconclusive: 3.16 µM [inhibitor, full curve] | 
Cc1cccc(NCCC(=O)c2ccc(Br)cc2)c1 |  | inactive: -35.5% [at 102 µM]
CCOc1ccc(-c2cc(C(=O)O)c3ccccc3n2)c(OCC)c1 | inconclusive: 22.4 µM [inhibitor, single point] | 
O=C(c1ccncc1)N1CCCC(N2CCN(c3cccc(C(F)(F)F)c3)CC2)C1 (stereo not drawn) | inconclusive: 79.4 µM [inhibitor, single point] | 
Cc1ccc(CCNC(=O)CC2Oc3ccc(C)cc3NC2=O)cc1 (stereo not drawn) |  | inactive: -9.19% [at 102 µM]
O=C(COC(=O)c1ccc(N2CCCC2=O)cc1)Nc1ccccc1 |  | inactive: -11.2% [at 12.7 µM]
COC(=O)c1[nH]c2ccccc2c1NC(=O)CN1CCC(C(N)=O)(N2CCCCC2)CC1 |  | inconclusive: -53.9% [inhibitor]
CN(CC(=O)N1CCc2[nH]c3ccc(F)cc3c2C1)CC1OCCO1 | inconclusive: 79.4 µM [inhibitor, partial curve, poor fit] | 
CN(C)c1cc[n+](CC(=O)N2c3ccccc3Sc3ccccc32)cc1 | inconclusive: 39.8 µM [inhibitor, partial curve, poor fit] | 
CC1CCc2c(sc3nc(CN4CCOCC4)nc(N4CCc5ccccc5C4)c23)C1 (stereo not drawn) | inconclusive: 39.8 µM [inhibitor, single point] | 
